In PubChem BioAssay AID588579 (National Center for Advancing Translational Sciences (NCATS), 2011):
Hit rate of the full screen: of about 400,000 compounds, about 2,200 (0.55%) were called active. The shares of active, inactive and inconclusive entries below differ from those in the screen. Calls come from the whole dose curve; as a rule, active = well fitted inhibition curve with a large enough effect; inconclusive = small, poorly fitted or top-dose-only effect, or another doubt; inactive = no such curve, though single readings can be large or run the other way. Where the call is inconclusive, the potency comes from a doubtful curve fit.

target: DNA polymerase kappa (Homo sapiens) (UniProt Q9UBT6); assay: qHTS for Inhibitors of Polymerase Kappa; conditions: purified Pol kappa, fluorescent DNA synthesis assay, 10 min; series mostly up to 107 µM; activity, negative = inhibition: at the top concentration
Method in brief: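 Inhibition of 10 nM Pol kappa is measured by a fluorescent read-out at 0 and 10 min following addition of 50 nM substrate (final), with a 15-min room-temperature compound preincubation.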
% is set by controls: 0 for no effect and ±100 for the full control effect; potency is the fitted concentration of half-maximal effect; tags give direction and shape of the fitted curve.

UniProt Q9UBT6, sequence (Q9UBT6 whole entry, looked up): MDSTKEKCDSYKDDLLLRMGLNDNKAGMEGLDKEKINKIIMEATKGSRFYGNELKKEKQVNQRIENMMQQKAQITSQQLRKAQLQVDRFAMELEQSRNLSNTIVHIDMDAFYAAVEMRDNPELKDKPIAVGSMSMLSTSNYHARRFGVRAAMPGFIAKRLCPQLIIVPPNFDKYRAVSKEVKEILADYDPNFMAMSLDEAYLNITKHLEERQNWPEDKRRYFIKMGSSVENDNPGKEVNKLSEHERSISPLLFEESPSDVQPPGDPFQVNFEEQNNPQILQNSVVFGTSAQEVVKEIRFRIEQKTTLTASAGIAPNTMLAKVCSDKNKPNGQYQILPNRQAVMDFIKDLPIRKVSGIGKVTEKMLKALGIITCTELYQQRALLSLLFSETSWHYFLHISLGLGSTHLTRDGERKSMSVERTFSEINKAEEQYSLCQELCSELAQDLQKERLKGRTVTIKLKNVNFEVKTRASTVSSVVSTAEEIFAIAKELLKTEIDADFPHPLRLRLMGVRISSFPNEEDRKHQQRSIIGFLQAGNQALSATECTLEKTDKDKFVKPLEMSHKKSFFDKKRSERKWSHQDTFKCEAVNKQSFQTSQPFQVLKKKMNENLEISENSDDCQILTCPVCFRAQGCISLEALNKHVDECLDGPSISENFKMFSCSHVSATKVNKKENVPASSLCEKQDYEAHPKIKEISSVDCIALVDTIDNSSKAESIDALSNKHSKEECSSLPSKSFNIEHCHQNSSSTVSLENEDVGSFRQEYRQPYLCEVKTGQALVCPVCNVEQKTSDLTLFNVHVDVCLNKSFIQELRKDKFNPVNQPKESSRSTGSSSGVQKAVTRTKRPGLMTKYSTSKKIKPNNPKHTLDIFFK

**Q.** `NC(=O)c1ccc(NC(=O)COc2ccc(-n3cnnn3)cc2)cc1` was tested. Which Potency did it give?
**A.** inconclusive: 89.1 µM [inhibitor, single point]

**Q.** With `O=[N+]([O-])c1ccccc1N=Nc1ccc(O)cc1O` as the compound, how does the Potency read?
**A.** inconclusive: 79.4 µM [inhibitor, partial curve, poor fit]

**Q.** How did the Potency turn out when `NC(=S)NN=C1c2cc(OCCN3CCOCC3)ccc2-c2ccc(OCCN3CCOCC3)cc21` was run?
**A.** inconclusive: 79.4 µM [inhibitor, partial curve, poor fit]

**Q.** How did the “activity, negative = inhibition” value turn out when `CCC(C)NC(=O)Cn1c(=O)n(-c2ccc(OC)cc2)c(=O)c2ccc(C(=O)NCc3ccc(C)cc3)cc21` (stereo unspecified) was run?
**A.** inactive: -10.7%

**Q.** `Cc1onc(-c2c(Cl)cccc2Cl)c1C(=O)NC1C(=O)N2C1SC(C)(C)C2C(=O)O` (stereo unspecified) was tested. Which Potency did it give?
**A.** inconclusive: 89.1 µM [inhibitor, partial curve, poor fit]

**Q.** With `N#CC1=C(N)SC(N)=C(C#N)C1CCc1ccccc1` as the compound, how does the Potency read?
**A.** inconclusive: 79.4 µM [inhibitor, partial curve, poor fit]

**Q.** For `Cc1ccc(C(=O)O)cc1-n1c(C)cc(C=O)c1C`, which Potency is on record?
**A.** inconclusive: 100 µM [inhibitor, single point]

**Q.** How did the Potency turn out when `Cc1ccc(SCC(=O)Nc2ccc(S(=O)(=O)Nc3ncccn3)cc2)cc1` was run?
**A.** inconclusive: 89.1 µM [inhibitor, single point]

**Q.** Which “activity, negative = inhibition” value does the source give for `O=C(CCS(=O)(=O)c1ccccc1)Nc1nc2ccc(F)cc2s1` here?
**A.** inactive: -0.661%

**Q.** With `Cc1ccc(/C=C2/C(=O)ON=C2c2ccccc2)o1` as the compound, how does the Potency read?
**A.** active: 22.4 µM

**Q.** For `Cc1ccc(C)c(SCC(=O)NCc2ccco2)c1`, which “activity, negative = inhibition” value is on record?
**A.** inactive: -5.96%

**Q.** `CCOC(=O)CNS(=O)(=O)c1cc(-c2nnc(Nc3cccc(O)c3)c3ccccc23)ccc1C` was tested. Which Potency did it give?
**A.** inconclusive: 89.1 µM [inhibitor, single point]

**Q.** `Cc1ccc(C(=O)NCc2occc2C(=O)O)o1` was tested. Which Potency did it give?
**A.** inconclusive: 70.8 µM [inhibitor, partial curve, poor fit]

**Q.** How did the Potency turn out when `C=CCOc1ccc(/C=C2/C(=N)N3N=C(CC(=O)N4CCCC4)SC3=NC2=O)cc1OC` was run?
**A.** inconclusive: 79.4 µM [inhibitor, single point]

**Q.** For `CCCC1=Nc2cc(C(=O)NC(C)c3ccccc3)ccc2Sc2ccc(C)cc21` (stereo unspecified), which Potency is on record?
**A.** inconclusive: 89.1 µM [inhibitor, partial curve, poor fit]

**Q.** How did the Potency turn out when `Cc1cccc(N(C)S(=O)(=O)c2ccc3c(c2)C(C)(C)C(=O)N3C)c1` was run?
**A.** inconclusive: 56.2 µM [inhibitor, partial curve, poor fit]

**Q.** With `CC(C)Cn1c(N)c(C(=O)COC(=O)c2cc(-c3ccco3)nc3ccccc23)c(=O)n(C)c1=O` as the compound, how does the Potency read?
**A.** inconclusive: 50.1 µM [inhibitor, partial curve, poor fit]

**Q.** `COc1ccc(NS(=O)(=O)c2cccc(C(=O)NN=Cc3cc(Br)c(O)c(Br)c3)c2)cc1` was tested. Which Potency did it give?
**A.** inconclusive: 89.1 µM [inhibitor, single point]

**Q.** With `Oc1cc(O)c2c(c1)O[C@H](c1ccc(O)c(O)c1)[C@H](O)C2` as the compound, how does the Potency read?
**A.** active: 89.1 µM

**Q.** How did the Potency turn out when `COCCN1C(=O)c2oc3ccccc3c(=O)c2C1c1ccc(OC)c(OC)c1` (stereo unspecified) was run?
**A.** active: 79.4 µM

**Q.** With `O=C(CSc1nc2cc(Cl)ccc2s1)NC(=O)NCc1ccco1` as the compound, how does the Potency read?
**A.** inconclusive: 89.1 µM [inhibitor, single point]

**Q.** Which Potency does the source give for `O=C1OCCN1C(=O)[C@H]1[C@H](c2ccc(F)cc2)C(c2ccc(F)cc2)=NN1c1ccccc1` here?
**A.** inconclusive: 50.1 µM [inhibitor, single point]

**Q.** Which Potency does the source give for `Cc1ccc(-n2c(O)c(C=Nc3ccccc3-c3n[nH]c(=S)[nH]c3=O)c3ccccc3c2=O)c(C)c1` here?
**A.** inconclusive: 89.1 µM [inhibitor, single point]

**Q.** `CNc1ccc(Br)cc(C(=O)/C=C/c2ccc3c(c2)OCO3)c1=O` was tested. Which Potency did it give?
**A.** active: 35.5 µM

**Q.** How did the “activity, negative = inhibition” value turn out when `COC(=O)c1c(SC)nc2ccccc2c1OCc1ccccc1C` was run?
**A.** inactive: 2.74%

**Q.** How did the Potency turn out when `O=C(CCN1CCN(c2ccccc2)CC1)N/N=C/c1ccc(O)c(O)c1O` was run?
**A.** active: 3.55 µM

**Q.** For `CC(C)C(NC(=O)OCc1ccccc1)C(=O)OCC(=O)NCc1ccco1` (stereo unspecified), which Potency is on record?
**A.** inconclusive: 89.1 µM [inhibitor, single point]

**Q.** `CCOC(=O)C1CCN(C(=O)C2CCN(C3=NS(=O)(=O)C(c4ccc(C)cc4)=C3CC)CC2)CC1` was tested. Which “activity, negative = inhibition” value did it give?
**A.** inactive: 6.63%

**Q.** Which “activity, negative = inhibition” value does the source give for `O=C(Nc1ccc(Cl)cc1F)c1ccc(COc2c(F)c(F)c(F)c(F)c2F)o1` here?
**A.** inactive: -32.2%

**Q.** Which Potency does the source give for `CC(=O)c1cccc(NC(=O)Cc2cccs2)c1` here?
**A.** inconclusive: 100 µM [inhibitor, partial curve, poor fit]

**Q.** How did the Potency turn out when `Cc1ccc(NC(=O)CN2C(=O)S/C(=C/c3ccc(O)c([N+](=O)[O-])c3)C2=O)cc1C` was run?
**A.** active: 50.1 µM

**Q.** For `Cc1cc(NC(=O)CSc2nnc(-c3cccnc3)n2N)no1`, which Potency is on record?
**A.** inconclusive: 89.1 µM [inhibitor, partial curve, poor fit]

**Q.** For `Cc1[nH]c(/C=C2/C(=O)Nc3ccc(S(=O)(=O)Cc4c(Cl)cccc4Cl)cc32)c(C)c1C(=O)N1CCCC1CN1CCCC1` (stereo unspecified), which Potency is on record?
**A.** inconclusive: 37.7 µM [inhibitor, partial curve, poor fit]

**Q.** Which “activity, negative = inhibition” value does the source give for `CCOC(=O)c1c(NC(=O)c2nc(SC(C)C)ncc2Cl)sc2c1CCCC2` here?
**A.** inactive: -0.49%

**Q.** `CCOC(=O)c1c(C)oc2ccc(NS(=O)(=O)c3ccc4c5c(cccc35)C(=O)N4)cc12` was tested. Which Potency did it give?
**A.** inconclusive: 89.1 µM [inhibitor, single point]

**Q.** Which Potency does the source give for `O=C(Nc1nnc(S(=O)(=O)N2CCOCC2)s1)c1ccccc1` here?
**A.** inconclusive: 63.1 µM [inhibitor, partial curve, poor fit]

**Q.** For `Cc1c(Cl)c([N+](=O)[O-])nn1CCCC(=O)Nc1ccc(Cl)cc1Cl`, which “activity, negative = inhibition” value is on record?
**A.** inactive: -18.5%

**Q.** Which Potency does the source give for `COc1ccc(CN(C(=O)/C=C/c2ccco2)C2CCS(=O)(=O)C2)cc1` (stereo unspecified) here?
**A.** inconclusive: 89.1 µM [inhibitor, single point]

**Q.** Which Potency does the source give for `COc1ccc(-c2cc(OC(=O)c3ccc(Cl)cc3)c3c(C)oc(C)c3c(=O)c2)cc1` here?
**A.** inconclusive: 79.4 µM [inhibitor, partial curve, poor fit]

**Q.** With `C=CCn1c(SCC(=O)NCCCC)nc2scc(-c3ccco3)c2c1=O` as the compound, how does the Potency read?
**A.** active: 39.8 µM

**Q.** Which Potency does the source give for `CC(C)(C)NCC(O)COc1cccc2c1CCC(=O)N2` (stereo unspecified) here?
**A.** inconclusive: 89.1 µM [inhibitor, partial curve, poor fit]

**Q.** For `COc1cc(NC(=O)c2ccc3c(SCC(=O)O)c4c(nc3c2)CCC4)cc(OC)c1OC`, which Potency is on record?
**A.** inconclusive: 100 µM [inhibitor, single point]

**Q.** How did the Potency turn out when `CC1=CN2C(=N)/C(=C/c3ccc(Sc4ccc(Cl)cc4)o3)C(=O)N=C2S1` was run?
**A.** inconclusive: 89.1 µM [inhibitor, partial curve, poor fit]

**Q.** How did the Potency turn out when `CN(Cc1ccco1)c1cc(-c2ccccc2C(F)(F)F)ncn1` was run?
**A.** inconclusive: 31.6 µM [inhibitor, partial curve, poor fit]

**Q.** With `CC[C@H]1C(c2cccc(Cl)c2)=NN(c2ccccc2)[C@@H]1CO` as the compound, how does the Potency read?
**A.** inconclusive: 1.58 µM [inhibitor, full curve, poor fit]

**Q.** For `CCOC(=O)c1c(C)[nH]c(C)c1S(=O)(=O)N(C)CC(=O)Nc1ccccc1F`, which Potency is on record?
**A.** active: 44.7 µM

**Q.** For `O=C(Cn1nnc(-c2ccc(Cl)cc2)n1)NCc1ccco1`, which Potency is on record?
**A.** inconclusive: 89.1 µM [inhibitor, single point]

**Q.** For `Nc1nnc(CC(=O)N/N=C/c2cc([N+](=O)[O-])cc(Br)c2O)s1`, which Potency is on record?
**A.** active: 50.1 µM

**Q.** With `O=C1Nc2ccccc2C1=Nc1ccc(S(=O)(=O)Nc2nccs2)cc1` as the compound, how does the Potency read?
**A.** inconclusive: 89.1 µM [inhibitor, single point]

**Q.** For `Cc1ccc(C(=O)/C=C/C(=O)c2ccc(C)cc2)cc1`, which “activity, negative = inhibition” value is on record?
**A.** inactive: -7.35%

**Q.** For `O=C(O)c1ccc(CSc2nnc(-c3ccccc3Cl)n2-c2ccccc2)cc1`, which “activity, negative = inhibition” value is on record?
**A.** inactive: 7%

**Q.** How did the Potency turn out when `CC(=O)/C(N=Nc1cc(C)ccc1O)=C(\C)O` was run?
**A.** inconclusive: 89.1 µM [inhibitor, partial curve, poor fit]

**Q.** `COc1ccc(CN(C(=O)/C=C/c2ccco2)C2CCS(=O)(=O)C2)cc1OC` (stereo unspecified) was tested. Which Potency did it give?
**A.** inconclusive: 89.1 µM [inhibitor, single point]

**Q.** How did the “activity, negative = inhibition” value turn out when `Cc1cccc(C)c1NC(=O)COC(=O)c1ccccc1[N+](=O)[O-]` was run?
**A.** inactive: -9.01%

**Q.** Which Potency does the source give for `CC(C)OCCCNc1nc(Cl)nc2c1cnn2C` here?
**A.** inconclusive: 89.1 µM [inhibitor, single point]

**Q.** `COc1cc(C2c3c([nH]c(=O)[nH]c3=O)Nc3ccc4ccccc4c32)ccc1O` (stereo unspecified) was tested. Which Potency did it give?
**A.** inconclusive: 89.1 µM [inhibitor, single point]

**Q.** How did the Potency turn out when `O=c1c2ccccc2nc(COc2ccccc2)n1/N=C/c1ccc(O)c(O)c1` was run?
**A.** inconclusive: 79.4 µM [inhibitor, single point]

**Q.** For `O=C(O)/C=C/c1ccc([N+](=O)[O-])o1`, which Potency is on record?
**A.** inconclusive: 89.1 µM [inhibitor, single point]

**Q.** How did the Potency turn out when `COC(=O)C1=C(O)/C(=C\c2ccc(CNS(=O)(=O)c3ccccc3)o2)N=C1C` was run?
**A.** active: 28.2 µM

**Q.** `Cc1ccc(OC(C)C(=O)Nc2nonc2-c2ccc(Br)cc2)cc1C` (stereo unspecified) was tested. Which “activity, negative = inhibition” value did it give?
**A.** inactive: -2.45%

**Q.** For `CCOC(=O)C1=C(COC(=O)COc2ccccc2C=O)NC(=O)NC1C` (stereo unspecified), which Potency is on record?
**A.** inconclusive: 100 µM [inhibitor, single point]

**Q.** How did the Potency turn out when `Cc1ccc(C(=O)O)cc1-c1ccc(/C=C2/NC(=O)N(c3ccccc3)C2=O)o1` was run?
**A.** active: 22.4 µM

**Q.** With `O=c1cc(-c2ccc(O)cc2)oc2ccc(O)cc12` as the compound, how does the Potency read?
**A.** inactive

**Q.** `Cc1c(Cl)cccc1NC(=O)CN1C(=O)CCn2nc(-c3cccn3C)cc21` was tested. Which “activity, negative = inhibition” value did it give?
**A.** inactive: -2.39% [at 60.1 µM]

**Q.** For `COc1ccc(CC(=O)OCC(=O)Nc2ncc(Cl)cc2Cl)cc1OC`, which “activity, negative = inhibition” value is on record?
**A.** inactive: -8.67%

**Q.** For `COc1ccccc1NC(=O)/C(C#N)=C/C=C/c1ccco1`, which Potency is on record?
**A.** inconclusive: 56.2 µM [inhibitor, partial curve, poor fit]
